Patent US20110178024A1 (BEN GURION UNIVERSITY OF THE NEGEV RESEARCH AND DEVELOPMENT …, published 2011)

Assays:
HLA-DR15 (DRB1*1501) = HLA-DR15 (DRB1*1501) (human); assay: cell-based or functional assay
HLA-DR4 (DRB1*0401) = HLA-DR4 (DRB1*0401) (human); assay: cell-based or functional assay

B1: Aβ[…] peptide (peptide)
peptide: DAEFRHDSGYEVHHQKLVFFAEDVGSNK
HLA-DR15 (DRB1*1501)
  T-cell proliferation of splenocytes of Aβ-immunized DR15 mice, SI at 10 µg/ml: 4.5 SI
HLA-DR4 (DRB1*0401)
  T-cell proliferation of splenocytes of Aβ-immunized DR4 mice, SI at 10 µg/ml: 1.2 SI
